From PubChem BioAssay AID686978 (National Center for Advancing Translational Sciences (NCATS), 2013)
Screen size: about 420,000 compounds; about 64,000 (15%) were called active. Inconclusive results, whose numbers are uncertain, are shown with a selection of clear calls. Calls follow the shape of the dose curve; as a rule, active = well fitted inhibition curve with a large enough effect; inconclusive = small, poorly fitted or top-dose-only effect; inactive = flat fitted curve, though single readings scatter. No potency is given beside an inconclusive call; the fits are too rough.

Test: qHTS for Inhibitors of human tyrosyl-DNA phosphodiesterase 1 (TDP1): qHTS in cells in absence of CPT; also: nearly all actives have a fitted effect of over 55% in size
Settings: DT40 Tdp1-/- hTDP1 cells, no CPT, ATP luminescence, 48 h; activity change, negative = growth inhibition: at 46.2 µM (top of the series) unless noted
Method in brief: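 Compound effects on proliferation are scored in DT40 Tdp1-/-;hTDP1 cells in the absence of CPT. ATP levels (CellTiter-Glo luminescence) are recorded after a ≥48 hr, 37 °C incubation.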
% is scaled to controls: 0 for no effect and ±100 for the full control effect; potency is read from the fitted curve at half-maximal effect; tags tell the direction and shape of the fitted curve.

Question: For `CCC(Oc1ccccc1F)C(=O)NCCCn1ccnc1` (centres undefined), which “activity change, negative = growth inhibition” value is on record?
Answer: inactive: -24%

Question: With `CSc1ccc(S(=O)(=O)N2CCC(C(=O)Nc3cccnc3)CC2)cc1` as the compound, how does the activity change, negative = growth inhibition read?
Answer: inconclusive: -36% [inhibitor]

Question: With `COc1ccc(-c2nc(CN3CCC(C(=O)NCCN(CC(C)C)CC(C)C)CC3)c(C)o2)cc1OC` as the compound, how does the Potency read?
Answer: inconclusive [inhibitor, partial curve]

Question: With `c1ccc(NN(Cc2ccccn2)c2ccccc2)cc1` as the compound, how does the Potency read?
Answer: inconclusive [inhibitor, single point]

Question: With `CC(=O)N1CCOc2ccc(S(=O)(=O)N3CC(C)CC(C)C3)cc21` (centres undefined) as the compound, how does the “activity change, negative = growth inhibition” value read?
Answer: inactive: 24.4%

Question: For `COc1ccc(NC(=O)c2nc[nH]c2C(=O)NCc2ccccc2)cc1`, which Potency is on record?
Answer: inconclusive [inhibitor, single point]

Question: Which Potency does the source give for `COc1ccc2c(c1)c(CC(=O)Nc1ccccc1OC)c(C)n2C(=O)c1ccc(Cl)cc1` here?
Answer: inconclusive [inhibitor, single point]

Question: For `Cc1ccc(S(=O)(=O)N2CCCC2CNC(=O)C(=O)NCCN2CCOCC2)cc1` (centres undefined), which “activity change, negative = growth inhibition” value is on record?
Answer: inactive: -2.51%

Question: With `Cc1ccc([C@H]2C[C@@H](n3cc(-c4ccc(F)cc4)nn3)[C@H](O)CN2Cc2cccs2)cc1` as the compound, how does the Potency read?
Answer: inconclusive [inhibitor, single point]

Question: For `CCOc1cccc(-c2cc(-c3n[nH]c(=S)n3CC)c3ccccc3n2)c1`, which activity change, negative = growth inhibition is on record?
Answer: inconclusive: -30.5% [inhibitor]

Question: With `CCCc1cc(C(=O)Nc2ccc(C(=O)c3ccc(F)cc3)cc2)n(C)n1` as the compound, how does the Potency read?
Answer: inconclusive [inhibitor, single point]

Question: Which Potency does the source give for `Cc1ncc(CO)c2c1Oc1nc(-c3ccccc3F)nc(SCC(=O)N3CCCCC3)c1C2` here?
Answer: inconclusive [inhibitor, partial curve]

Question: With `O=C(COc1ccc(Cl)cc1Br)N1CCN(S(=O)(=O)c2ccccc2)CC1` as the compound, how does the Potency read?
Answer: inconclusive [inhibitor, single point]

Question: Which Potency does the source give for `COC(=O)Cc1ccc(NC(=S)N2CCN(C)CC2)cc1` here?
Answer: inconclusive [inhibitor, full curve, poor fit]

Question: Which Potency does the source give for `COCC(=O)N1CCC2(CC1)CN(c1cccc(-c3ccccc3)c1)C2` here?
Answer: inconclusive [inhibitor, single point]

Question: With `COc1ccc(Br)cc1CNc1ccc2[nH]c(=O)[nH]c2c1` as the compound, how does the “activity change, negative = growth inhibition” value read?
Answer: inactive: -29.3%

Question: For `O=C(NNc1cc(Cl)ccc1Cl)c1c(F)cccc1Cl`, which Potency is on record?
Answer: inconclusive [inhibitor, single point]

Question: For `CCOC(=O)C1CCN(C(=O)c2cccnc2Oc2ccc(Cl)cc2)CC1`, which Potency is on record?
Answer: inconclusive [inhibitor, single point]

Question: For `COC(=O)c1cccc(C23CC4(C2)[C@H](CN(Cc2ccc(-c5ccccc5)cc2)[C@@H]4c2ccccc2)C3c2ccc(Cl)nc2)c1` (some centres undefined), which Potency is on record?
Answer: inconclusive [inhibitor, partial curve]

Question: With `Cc1cc(C(=O)Nc2sccc2C#N)c2ccccc2n1` as the compound, how does the “activity change, negative = growth inhibition” value read?
Answer: inactive: 5.23%

Question: With `CCc1nc2ccc(C(=O)NCCCN3CCN(c4ccccc4F)CC3)cc2nc1CC` as the compound, how does the Potency read?
Answer: active: 23.1 µM

Question: For `Cc1ccc(-c2nc3ccc(Cl)cn3c2CC2CCCCC2)cc1`, which Potency is on record?
Answer: inconclusive [inhibitor, full curve, poor fit]

Question: Which Potency does the source give for `C/C(=N/NC(=O)c1cccs1)c1c(C)[nH]n(-c2nc3ccccc3s2)c1=O` here?
Answer: active: 2.31 µM

Question: For `O=C(COc1ccc(CO)cc1)Nc1ccc(F)cc1`, which “activity change, negative = growth inhibition” value is on record?
Answer: inactive: -18.3%

Question: Which “activity change, negative = growth inhibition” value does the source give for `CC(C)c1ccc(NC(=O)CSc2nnc(-c3ccccc3)n2C)cc1` here?
Answer: inactive: -11.2%

Question: For `CCc1ccc(NC(=O)Cn2c(=O)n(Cc3ccccc3)c(=O)c3oc4ccccc4c32)cc1`, which Potency is on record?
Answer: inconclusive [inhibitor, single point]

Question: Which Potency does the source give for `COc1ccc(NC(=O)CSc2nc3c(c(=O)[nH]2)CN(Cc2ccccc2)CC3)cc1Cl` here?
Answer: inconclusive [inhibitor, single point]

Question: With `CCOC(=O)c1c(N)sc(C(O)(C(F)(F)F)C(F)(F)F)c1-c1ccc(OC)cc1OC` as the compound, how does the Potency read?
Answer: inconclusive [inhibitor, partial curve]

Question: Which Potency does the source give for `Cc1cc(Br)cn2c(Cc3ccsc3)c(C(C)(C)C)nc12` here?
Answer: active: 25.9 µM

Question: Which Potency does the source give for `CCOc1cc(C(=O)NCCc2ccc(S(N)(=O)=O)cc2)cc(OCC)c1OCC` here?
Answer: inconclusive [inhibitor, single point]

Question: For `O=C(CCN1CCN(C/C=C/c2ccccc2)CC1)Nc1ccccc1`, which Potency is on record?
Answer: inconclusive [inhibitor, single point]

Question: With `COC(=O)c1cccc(S(=O)(=O)N2CCC(NC(=O)Nc3cccc(F)c3)CC2)c1` as the compound, how does the Potency read?
Answer: inconclusive [inhibitor, single point]

Question: With `Cc1ccc(Nc2cc(Cl)nc(N)n2)c([N+](=O)[O-])c1` as the compound, how does the “activity change, negative = growth inhibition” value read?
Answer: inactive: -16.3%

Question: With `COc1cc(NC(=O)C2CC(c3cccc(Br)c3)=NO2)cc(OC)c1OC` (centres undefined) as the compound, how does the Potency read?
Answer: inconclusive [inhibitor, single point]

Question: Which “activity change, negative = growth inhibition” value does the source give for `CCOC(=O)CNC(=O)c1ccc(C#CC2(O)CCCCC2)cc1` here?
Answer: inactive: 4.28%

Question: Which Potency does the source give for `Cn1cccc1C(=O)N1CCC2(CCN(Cc3ccc(C#N)cc3)CC2)CC1` here?
Answer: inconclusive [inhibitor, partial curve, poor fit]

Question: With `COc1ccccc1N1CCN(C(=O)C(NS(=O)(=O)c2cccs2)c2ccccc2)CC1` (centres undefined) as the compound, how does the Potency read?
Answer: inconclusive [inhibitor, single point]

Question: For `Cc1ccc(S(=O)(=O)c2cn(C)c3cc(N4CCCC4)c(F)cc3c2=O)c(C)c1`, which Potency is on record?
Answer: active: 23.1 µM

Question: With `Cc1cccc(C)c1NC(=O)C1(C)CN(S(C)(=O)=O)CC(=O)N1CCCN1CCOCC1` (centres undefined) as the compound, how does the “activity change, negative = growth inhibition” value read?
Answer: inactive: 0.794%

Question: Which “activity change, negative = growth inhibition” value does the source give for `CCOc1ccc(N/C(C)=C\C(=O)c2ccc3c(c2)OCCO3)cc1` here?
Answer: inactive: -1.39%

Question: Which “activity change, negative = growth inhibition” value does the source give for `Cc1nnc(SCCn2c(N3CCN(C)CC3)nc3c2c(=O)n(C)c(=O)n3C)s1` here?
Answer: inactive: -4.94%

Question: For `CS(=O)(=O)c1ccc2nc(NC(=O)c3ccc(N4CCCC4=O)cc3)sc2c1`, which “activity change, negative = growth inhibition” value is on record?
Answer: inactive: -0.935%

Question: For `CC1=CC(=O)OC1Cc1ccc2ccccc2n1` (centres undefined), which Potency is on record?
Answer: inconclusive [inhibitor, partial curve, poor fit]

Question: For `CCOC(=O)Nc1cccc(OCC(=O)Nc2ccccc2OC)c1`, which Potency is on record?
Answer: inconclusive [inhibitor, single point]

Question: With `COc1cccc(CSc2nnc(CSc3nc4nc(C)cc(C)n4n3)s2)c1` as the compound, how does the Potency read?
Answer: inconclusive [inhibitor, single point]

Question: Which Potency does the source give for `C=CCNc1nc(N(c2ccccc2)c2ccccc2)nc(-n2ccnc2)n1` here?
Answer: inconclusive [inhibitor, partial curve, poor fit]

Question: With `Cc1ccc(C)c(OCCC(=O)Nc2cccc(S(=O)(=O)N3CCCC3)c2)c1` as the compound, how does the Potency read?
Answer: inconclusive [inhibitor, single point]

Question: With `O=C(Cn1cnc2c(oc3ccccc32)c1=O)NCc1ccccc1` as the compound, how does the Potency read?
Answer: inconclusive [inhibitor, single point]

Question: With `Cc1ccc(S(=O)(=O)N2CCN(Cc3nc4ccccc4n3C)CC2)cc1` as the compound, how does the “activity change, negative = growth inhibition” value read?
Answer: inactive: -17.8%

Question: Which Potency does the source give for `CC(C)Nc1cc(C(C)(C)C)nc2c(-c3ccccc3)cnn12` here?
Answer: inconclusive [inhibitor, partial curve, poor fit]

Question: Which “activity change, negative = growth inhibition” value does the source give for `CCOc1cc(NC(=S)NCCCN2CCOCC2)c(OCC)cc1NC(=O)c1cccs1` here?
Answer: inactive: -25%

Question: Which Potency does the source give for `Cc1ccc(-n2c(SCC(=O)Nc3cc(C)on3)nc3c(c2=O)SC(C)C3)cc1` (centres undefined) here?
Answer: inconclusive [inhibitor, single point]

Question: Which activity change, negative = growth inhibition does the source give for `COc1cccc(S(=O)(=O)N(C)C[C@@H]2Oc3ncc(C#CCN(C)C)cc3C(=O)N([C@H](C)CO)C[C@H]2C)c1` here?
Answer: inconclusive: -2.23% [inhibitor]

Question: With `CCN(CC)C(=O)Oc1cc(=O)n2c3c(cccc13)CCC2` as the compound, how does the “activity change, negative = growth inhibition” value read?
Answer: inactive: 3.22%

Question: For `CC(=O)c1c(C(C)=O)c(C)n(-c2ccc(O)cc2)c1C`, which “activity change, negative = growth inhibition” value is on record?
Answer: inactive: -12%

Question: For `CCOc1cc(C(=O)Nc2c(NC)c3ccccc3oc2=O)cc(OCC)c1OCC`, which “activity change, negative = growth inhibition” value is on record?
Answer: inactive: -17.2%

Question: Which Potency does the source give for `O=C(NC(=S)Nc1cccc2ncccc12)c1ccccc1` here?
Answer: inconclusive [inhibitor, single point]

Question: For `Cc1c(O)ccc2c(CC(=O)N[C@@H](Cc3ccccc3)C(=O)O)cc(=O)oc12`, which “activity change, negative = growth inhibition” value is on record?
Answer: inactive: -17.7%

Question: With `COc1ccc(N(CC(=O)Nc2ccc(OC)c(OC)c2)S(=O)(=O)c2ccccc2)cc1Cl` as the compound, how does the Potency read?
Answer: inconclusive [inhibitor, single point]

Question: For `Cc1ccc(-n2cc(C(=O)c3ccc(N4CCN(C)CC4)cc3)nn2)cc1Cl`, which “activity change, negative = growth inhibition” value is on record?
Answer: inactive: 20.3%

Question: For `Cc1cccc2nc(CSc3ccccc3N)cn12`, which Potency is on record?
Answer: inconclusive [inhibitor, full curve]

Question: For `O=C(NC1=NCCS1)c1cc(-c2ccc(F)cc2)nc2ccccc12`, which Potency is on record?
Answer: inconclusive [inhibitor, single point]

Question: With `O=C(NCc1ccccc1)[C@@H]1CCCN1C(=O)[C@@H]1CCCN1C(=O)c1ccc(Cl)cc1Cl` as the compound, how does the Potency read?
Answer: inconclusive [inhibitor, single point]

Question: For `CCCC[C@@H]1CC2=C(C(=O)OC(C)(C)O2)[C@@H](c2ccc(F)cc2)O1`, which Potency is on record?
Answer: inconclusive [inhibitor, partial curve]

Question: With `CCc1ccc(NC(=O)c2cnn(-c3c(C)cccc3C)c2C2CCNCC2)cc1` as the compound, how does the Potency read?
Answer: active: 23.1 µM

Question: Which Potency does the source give for `COc1ccc(/C=N/n2cnc3c([nH]c4ccc(F)cc43)c2=O)cc1CSc1ccccn1` here?
Answer: active: 7.31 µM

Question: With `C/C(CC(=O)Nc1ccccn1)=N\NC(=O)c1cnccn1` as the compound, how does the “activity change, negative = growth inhibition” value read?
Answer: inactive: 3.58%

Question: With `O=S(=O)(c1ccc(F)cc1)c1nc(-c2ccccc2F)oc1N1CCCCC1` as the compound, how does the activity change, negative = growth inhibition read?
Answer: inconclusive: -37.8% [inhibitor]

Question: For `CCCNC(=O)C1CCN(c2cc(C)nc3c(-c4ccc(OC)c(OC)c4)c(C)nn23)CC1`, which Potency is on record?
Answer: inconclusive [inhibitor, partial curve]
